# Measurements reported in PubChem BioAssay AID624417 (National Center for Advancing Translational Sciences (NCATS), 2012).
# The campaign covered roughly 410,000 compounds. About 6,400 (1.6%) were called active. Inconclusive results, whose numbers are uncertain, are shown with a selection of clear calls. Calls come from the whole dose curve; as a rule, active = well fitted inhibition curve with a large enough effect; inconclusive = small, poorly fitted or top-dose-only effect; inactive = no such curve, though single readings can be large or run the other way. Potencies of inconclusive entries are left out as doubtful fits.
# Target: Glucagon-like peptide 1 receptor (Homo sapiens) (UniProt P43220)
# Test: qHTS of GLP-1 Receptor Inverse Agonists (Inhibition Mode); note: nearly all actives have a fitted effect of over 55% in size
# Conditions: HEK293 GLP-1R CRE-luciferase, luminescence, 24 h, GLP-1R form is constitutively active; activity change, negative = inhibition: at 38.3 µM (top of the series) unless noted
# Procedure, shortened: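 qHTS in 1536-well format: reporter HEK293 cells expressing constitutive GLP-1R activity in DMEM + 10% Nu serum, 24 hr with compounds at 37 deg C, luminescence read after 12 min with detection reagent.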
# % is set by controls: 0 for no effect and ±100 for the full control effect; potency is the fitted concentration of half-maximal effect; tags give direction and shape of the fitted curve.
# UniProt P43220, sequence (P43220 whole entry, looked up): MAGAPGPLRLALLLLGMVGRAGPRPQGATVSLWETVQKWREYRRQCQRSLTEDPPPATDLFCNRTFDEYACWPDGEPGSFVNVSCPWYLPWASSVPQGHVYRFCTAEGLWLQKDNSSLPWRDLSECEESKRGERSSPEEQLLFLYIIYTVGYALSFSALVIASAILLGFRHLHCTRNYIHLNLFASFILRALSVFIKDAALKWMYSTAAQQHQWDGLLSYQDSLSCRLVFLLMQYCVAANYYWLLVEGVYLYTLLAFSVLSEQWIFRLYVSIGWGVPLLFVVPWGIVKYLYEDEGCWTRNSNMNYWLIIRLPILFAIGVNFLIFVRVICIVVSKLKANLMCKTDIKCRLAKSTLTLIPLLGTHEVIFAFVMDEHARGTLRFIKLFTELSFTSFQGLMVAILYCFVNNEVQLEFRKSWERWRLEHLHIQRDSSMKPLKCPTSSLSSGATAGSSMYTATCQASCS
SMILES,Potency,"activity change, negative = inhibition"
COc1ccc(CN(C(=O)c2snc(C(N)=O)c2N)C(CC(C)C)C(=O)NC2CCCCC2)cc1 (stereo unspecified),"inconclusive [inhibitor, partial curve, poor fit]",–
O=C(O)Cn1c(-c2ccccc2)cc2ccccc21,–,inactive: -9.52%
C=CCn1c(SCC(=O)Nc2ccc(N(C)C)cc2)nnc1-c1cccc(C)c1,"inconclusive [inhibitor, partial curve, poor fit]",–
O=c1c(O)c(-c2cccs2)oc2ccc(Cl)cc12,"inconclusive [inhibitor, single point]",–
C=CCN1C(=O)C2(NNc3ccccc3O2)c2ccccc21 (stereo unspecified),"inconclusive [inhibitor, partial curve, poor fit]",–
CCC1(C)Cc2c(sc3nc(SC)n(Cc4ccccc4)c(=O)c23)CO1 (stereo unspecified),"inconclusive [inhibitor, full curve, poor fit]",–
O=C(Nc1nc(-c2cc(Cl)sc2Cl)cs1)c1ccccc1,"inconclusive [inhibitor, partial curve, poor fit]",–
CCCCn1c(NCc2cccs2)nc2ccccc21,"inconclusive [inhibitor, partial curve, poor fit]",–
Cc1ccccc1Cn1cc(S(=O)(=O)c2ccc(Cl)cc2)c(=O)c2cc3c(cc21)OCO3,–,inactive: 4.05%
Cc1onc(-c2ccccc2Cl)c1C(=O)Nc1ccccc1C(N)=O,"inconclusive [inhibitor, partial curve, poor fit]",–
CC(=O)Nc1cccc(C(=O)N/N=C/c2ccc(C)o2)c1,–,inactive: 3.67%
O=C(Cc1sc(-c2ccccc2)nc1-c1ccccc1)Nc1ccccc1,"inconclusive [inhibitor, partial curve, poor fit]",–
COc1ccc(-c2cccc(-c3cc(=O)oc4cc(OC)cc(OC)c34)c2)cc1,"inconclusive [inhibitor, full curve, poor fit]",–
Cc1ccccc1Oc1cc(NC(=O)Cn2cnc([N+](=O)[O-])c2)cc([N+](=O)[O-])c1,"inconclusive [inhibitor, partial curve, poor fit]",–
CCOc1ccc(/C=N/NC(=S)NC2CC3C=CC2C3)cc1 (stereo unspecified),active: 3.16 µM,–
CCNS(=O)(=O)c1ccc(NC(=O)Nc2cc(C)ccc2OC)cc1,"inconclusive [inhibitor, partial curve, poor fit]",–
CCOc1cc(NC(=S)NCC2CCCO2)c(OCC)cc1NC(=O)c1ccccc1F (stereo unspecified),"inconclusive [inhibitor, partial curve, poor fit]",–
Cc1cccc(Nc2nc(-c3ccccc3)c(C(=O)Nc3cccnc3)s2)c1,"inconclusive [inhibitor, partial curve, poor fit]",–
CCCCc1ccc(NC(=O)CC(C)C)cc1,"inconclusive [inhibitor, single point]",–
CC(=O)N1CCN(C(=O)c2cc(-c3ccc(Cl)s3)nc3ccccc23)CC1,"inconclusive [inhibitor, single point]",–
O=C(Cn1ncc(Cl)c(Cl)c1=O)NC1CCCCC1,"inconclusive [inhibitor, single point]",–

SMILES,Potency,"activity change, negative = inhibition"
CCOc1ccc(CN2CCNC(=O)C2CC(=O)NCCCC2CCCC2)cc1 (stereo unspecified),"inconclusive [inhibitor, single point]",–
CSc1nsc(/C=C/Nc2ccc(Cl)cc2)c1C#N,"inconclusive [inhibitor, partial curve, poor fit]",–
CCOC(=O)C1(Cc2cccc(OC)c2)CCN(Cc2ccccc2)CC1,"inconclusive [inhibitor, partial curve, poor fit]",–
CC(C)c1ccc(NC(=O)CSc2ncc3c(n2)-c2ccccc2N(C)S3(=O)=O)cc1,–,inactive: -12.9%
Cc1ccc(Cl)c2sc(N3CCN(C(=O)C4CC4)CC3)nc12,–,inactive: -23.3%
CCCCCCN1CCN(C2CN(Cc3cn(CCCCCC)nn3)S(=O)(=O)C2)CC1 (stereo unspecified),"inconclusive [inhibitor, partial curve, poor fit]",–
Cc1onc(-c2c(F)cccc2Cl)c1C(=O)OCC(=O)NC(=O)NCC(C)C,active: 12.6 µM,–
CN(C(=O)c1ccccc1)C1c2c(ccc3ccccc23)OCC1CO (stereo unspecified),"inconclusive [inhibitor, single point]",–
CCC(C)NC(=O)Cn1c(=O)n(Cc2ccc(C(=O)NCCCOC)cc2)c(=O)c2ccccc21 (stereo unspecified),–,inactive: 9.41%
Cc1ccc(S(=O)(=O)N(C)C)cc1NC(=S)N1CCN(Cc2ccc3c(c2)OCO3)CC1,"inconclusive [inhibitor, partial curve]",–
COc1ccc(NC(=O)c2cccc(Oc3ccc([N+](=O)[O-])cc3Cl)c2)cc1,"inconclusive [inhibitor, partial curve, poor fit]",–
CC(C)CCNC(=O)C12CN(Cc3ccccc3)CC1C(c1ccc([N+](=O)[O-])cc1)=NO2 (stereo unspecified),"inconclusive [inhibitor, partial curve, poor fit]",–
O=C(Nc1ccc2c(c1)OCCO2)C(c1ccnc2ccccc12)N1CCC(Cc2ccccc2)CC1 (stereo unspecified),"inconclusive [inhibitor, partial curve]",–
Cc1cc(C(=O)OC(C(=O)Nc2ccc(C)c(Cl)c2)c2ccccc2)c(C)o1 (stereo unspecified),"inconclusive [inhibitor, partial curve, poor fit]",–
CCCCc1c(-c2ccc(Cl)cc2)ncn1CCc1ccccc1OC,"inconclusive [inhibitor, partial curve, poor fit]",–
CCOC(=O)/C(=N/Nc1ccccc1OC)N1CCCc2ccccc21,"inconclusive [inhibitor, partial curve, poor fit]",–
O=C(c1cccs1)N1C[C@H](O)[C@@H](n2cc(C3CC3)nn2)C[C@@H]1c1ccccc1,"inconclusive [inhibitor, full curve, poor fit]",–
Cc1cn(CC(=O)c2ccccc2)c2ccccc12,"inconclusive [inhibitor, partial curve, poor fit]",–
Cc1ccccc1OCC(=O)Nc1sc2c(c1C#N)CC(C)(C)NC2(C)C,"inconclusive [inhibitor, partial curve, poor fit]",–
CSc1ccc(CN(C)C(=O)c2ccc(S(=O)(=O)Nc3ccccc3)cc2)cc1,"inconclusive [inhibitor, partial curve, poor fit]",–
O=[N+]([O-])c1ccccc1S(=O)(=O)N1CCN(Cc2ccc3c(c2)OCO3)CC1,"inconclusive [inhibitor, single point]",–

SMILES,Potency,"activity change, negative = inhibition"
COc1ccc(Cl)cc1NC(=O)N1CCC(CN2CCc3ccccc3C2)CC1,"inconclusive [inhibitor, single point]",–
Cc1oc(-c2ccc(Cl)cc2)nc1CN1CCC(C(=O)NCc2ccco2)CC1,–,inactive: -33.1%
COc1cccc(CNC(=O)CSc2ccc(-c3sc(-c4ccccc4)nc3C)nn2)c1,–,inactive: 7.06%
CC1(C)Cc2c(C#N)c(SCC(=O)c3ccccc3)nc(N3CCOCC3)c2CS1,"inconclusive [inhibitor, full curve]",–
COc1ccccc1NC(=S)NNC(=O)c1c(Cl)c(C)nn1C,–,inactive: -21.5%
CC(C)C[C@H](NC(=O)[C@H](Cc1ccccc1)n1c(=O)[nH]c2ccccc2c1=O)C(=O)N1CCC(C(=O)O)CC1,–,inactive: -2.1%
O=C(CCC(=O)N1CCN(c2cccc(Cl)c2)CC1)N1CCN(c2ccccc2)CC1,"inconclusive [inhibitor, partial curve, poor fit]",–
O=[N+]([O-])c1cccc(/C([O-])=C(/C(=S)Nc2cccc3ccccc23)[n+]2ccccc2)c1,"inconclusive [inhibitor, single point]",–
O=C(CSc1ccc(S(=O)(=O)N2CCCCC2)cn1)Nc1ccccc1Br,"inconclusive [inhibitor, single point]",–
Cc1cccc(C)c1-n1nnnc1C(c1ccnc2ccccc12)N(C)Cc1ccc(Cl)c(Cl)c1 (stereo unspecified),–,inactive: 5.23%
Cn1c(=O)c2nc(SCC(=O)Nc3cc(Cl)ccc3Cl)n(C)c2n(C)c1=O,–,inactive: 5.01%
CN(C)CCN(C(=O)/C=C/c1cccs1)c1nc2c(F)cc(F)cc2s1,"inconclusive [inhibitor, partial curve]",–
O=C1CN(C(=O)c2cc(Br)c(Br)s2)c2ccccc2N1,"inconclusive [inhibitor, partial curve]",–
CCS(=O)(=O)c1ccc(C(=O)Nc2ccccc2)c(Cl)c1Cl,"inconclusive [inhibitor, single point]",–
CC1CC(C)CN(c2ncc3c(n2)CC(c2ccccc2Cl)CC3=O)C1 (stereo unspecified),"inconclusive [inhibitor, single point]",–
CCOc1ccc(/C=C/c2c([N+](=O)[O-])c(=O)n(C)c(=O)n2C)cc1,"inconclusive [inhibitor, partial curve, poor fit]",–
O=C(CN1C(=O)NC2(CCCC2)C1=O)OCCOc1ccc(F)cc1,"inconclusive [inhibitor, partial curve, poor fit]",–
C=CCO/N=C(\C)c1c(O)c(C)c(-c2ccccc2)n(-c2ccccc2)c1=O,"inconclusive [inhibitor, single point]",–
O=C(C1CCCN(S(=O)(=O)c2cccs2)C1)N1CCN(c2cccc(Cl)c2)CC1 (stereo unspecified),"inconclusive [inhibitor, single point]",–
